Substitutions are numbered along the chain they refer to. In names and notes the source's numbering stands. One block for each binder: values may come before it.
Key:
[1] = target: T1, Recombinant mouse serum albumin (mouse, UniProt P07724 25-608); assay: SPR, Fc fusion captured on anti-human Fc, mouse albumin as analyte, pH 6.0
T1 construct: Analyte in SPR, 0-500 nM

[2] = target: T2, Recombinant rat serum albumin (rat, UniProt P02770 25-608); assay: SPR, Fc fusion captured on anti-human Fc, rat albumin as analyte, pH 6.0
T2 construct: Analyte in SPR, 0-500 nM

[3] = target: T3, Recombinant human serum albumin (human, UniProt P02768); assay: SPR, VHH-Fc captured on anti-human Fc, human albumin as analyte, pH 6.0; pH 6.0
T3 construct: Analyte in SPR, 0-500 nM

[4] = target: T3, Recombinant human serum albumin; assay: SPR, Fc-VHH captured on anti-human Fc, human albumin as analyte, pH 6.0; pH 6.0

T2 sequence (P02770 25-608 limits assumed): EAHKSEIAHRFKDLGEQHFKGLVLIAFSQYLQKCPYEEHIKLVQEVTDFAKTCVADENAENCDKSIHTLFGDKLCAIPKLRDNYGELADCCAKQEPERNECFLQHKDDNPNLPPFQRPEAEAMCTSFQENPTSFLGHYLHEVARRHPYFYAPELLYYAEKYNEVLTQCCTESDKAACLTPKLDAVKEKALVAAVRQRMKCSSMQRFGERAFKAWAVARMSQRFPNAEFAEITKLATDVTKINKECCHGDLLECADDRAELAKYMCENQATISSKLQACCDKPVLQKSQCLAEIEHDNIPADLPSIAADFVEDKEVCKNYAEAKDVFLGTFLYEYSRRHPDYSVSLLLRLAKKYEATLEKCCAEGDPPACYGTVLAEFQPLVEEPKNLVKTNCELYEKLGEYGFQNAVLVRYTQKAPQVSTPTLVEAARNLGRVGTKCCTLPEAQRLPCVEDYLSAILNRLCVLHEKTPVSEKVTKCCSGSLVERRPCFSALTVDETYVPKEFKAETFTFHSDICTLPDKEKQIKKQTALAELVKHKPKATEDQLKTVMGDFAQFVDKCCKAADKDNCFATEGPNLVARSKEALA
T1 sequence (P07724 25-608 limits assumed): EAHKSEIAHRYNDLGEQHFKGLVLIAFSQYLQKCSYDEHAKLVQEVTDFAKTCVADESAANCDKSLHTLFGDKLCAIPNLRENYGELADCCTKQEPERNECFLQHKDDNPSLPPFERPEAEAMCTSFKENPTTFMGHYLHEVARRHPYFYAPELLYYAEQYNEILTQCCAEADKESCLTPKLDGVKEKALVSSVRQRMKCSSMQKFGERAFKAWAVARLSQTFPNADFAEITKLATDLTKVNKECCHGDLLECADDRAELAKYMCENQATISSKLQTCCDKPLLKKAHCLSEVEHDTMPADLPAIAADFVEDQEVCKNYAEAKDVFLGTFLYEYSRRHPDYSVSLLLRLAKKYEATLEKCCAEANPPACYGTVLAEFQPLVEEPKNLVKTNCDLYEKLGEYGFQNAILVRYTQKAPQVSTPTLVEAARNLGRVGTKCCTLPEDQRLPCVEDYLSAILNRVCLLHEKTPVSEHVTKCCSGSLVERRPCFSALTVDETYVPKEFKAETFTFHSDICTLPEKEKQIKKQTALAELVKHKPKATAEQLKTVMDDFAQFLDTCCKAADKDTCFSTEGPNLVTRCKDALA

- Kd [1]: 166 nM
- koff [1]: 0.0231 s⁻¹
- kon [1]: 139000 M⁻¹ s⁻¹
- Kd [2]: 1560 nM
- koff [2]: 0.132 s⁻¹
- kon [2]: 84700 M⁻¹ s⁻¹
B1: VHH 8-Fc fusion (SEQ ID NO: 149) (Fc fusion)
chain: EVQLVESGGGLVQPGGSLRLSCAASGFTFGSFGMSWVRQAPGKGPEWVSAIDSSGADTRYAESVKGRFTISRDNAKKTLYLQMNSLKPEDTAVYYCTIGRSTSRRNQGTQVTVASGGGGS[letters of human IgG1 Fc left out]
notes: Llama VHH-G4S-wild-type IgG1 Fc

- Kd [1]: 190 nM
- koff [1]: 0.0291 s⁻¹
- kon [1]: 153000 M⁻¹ s⁻¹
- Kd [2]: 12600 nM
- koff [2]: 0.135 s⁻¹
- kon [2]: 10700 M⁻¹ s⁻¹
B2: VHH 12-Fc fusion (SEQ ID NO: 153) (Fc fusion)
chain: B1 chain with E1Q, S54G, A56G, A61S, E62D, T69A, V93A, R105G, N106S, A114S
notes: as for B1

- Kd [1]: 162 nM
- koff [1]: 0.0245 s⁻¹
- kon [1]: 151000 M⁻¹ s⁻¹
- Kd [2]: 1680 nM
- koff [2]: 0.0802 s⁻¹
- kon [2]: 47700 M⁻¹ s⁻¹
B3: VHH 21-Fc fusion (SEQ ID NO: 162) (Fc fusion)
chain: B1 chain with E1Q, T28S, S54G, S63T, R105G, N106S, A114S

- Kd [1]: 159 nM
- koff [1]: 0.0252 s⁻¹
- kon [1]: 158000 M⁻¹ s⁻¹
- Kd [2]: 1570 nM
- koff [2]: 0.0941 s⁻¹
- kon [2]: 59800 M⁻¹ s⁻¹
B4: VHH 9-Fc fusion (SEQ ID NO: 150) (Fc fusion)
chain: B1 chain with S54G, R105G, N106S, A114S
notes: as for B1

- Kd [3]: 36.4 nM
- koff [3]: 0.013 s⁻¹
- kon [3]: 357000 M⁻¹ s⁻¹
B5: VHH 1-4-Fc fusion (SEQ ID NO: 26) (Fc fusion)
chain: QVQLVESGGGLVQPGGSLRLSCAASGFTFGQFGMSWVRQAPAKGPERVSAISSGGSGTIYADSVKGRFTISRDNAKNTLYLQMNSLKPEDTAVYYCTIGSSTTPSGPGQGTQVTVSSGGGGS[letters of human IgG1 Fc left out]

- Kd [3]: 43.4 nM
- koff [3]: 0.00368 s⁻¹
- kon [3]: 84800 M⁻¹ s⁻¹
B6: VHH 1-7-Fc fusion (SEQ ID NO: 29) (Fc fusion)
chain: B5 chain with Q1E, A42G, P45L, R47W, G54D, A75S, K87R, P88A, P107W, Q112T

- Kd [4]: 142 nM
- koff [4]: 0.00943 s⁻¹
- kon [4]: 66200 M⁻¹ s⁻¹
B7: Fc-VHH 1-8 fusion (SEQ ID NO: 42) (Fc fusion)
chain: [letters of human IgG1 Fc left out]GGGSEVQLVESGGGLVQPGGSLRLSCAASGFTFGQFGMSWVRQAPGKGLEWVSAISSDGSGTIYADSVKGRFTISRDNSKNTLYLQMNSLRAEDTAVYYCTIGSSTTPSGPGQGTTVTVSS

- Kd [4]: 45.3 nM
- koff [4]: 0.00804 s⁻¹
- kon [4]: 177000 M⁻¹ s⁻¹
B8: Fc-VHH 1-10 fusion (SEQ ID NO: 44) (Fc fusion)
chain: [letters of human IgG1 Fc left out]GGGSEVQLVESGGGLVQPGGSLRLSCAASGFTFGQFGMSWFRQAPGKEREFVSAISSDGSGTIYADSVKGRFTISRDNSKNTLYLQMNSLRAEDTAVYYCTIGSSTTPSGPGQGTTVTVSS

- Kd [3]: 34.2 nM
- koff [3]: 0.0033 s⁻¹
- kon [3]: 96500 M⁻¹ s⁻¹
B9: VHH 9-4-Fc fusion (SEQ ID NO: 200) (Fc fusion)
chain: EVQLVESGGGLVQPGGSLRLSCAASGFTFGSFGMSWVRQAPGKGLEWVSAIDSGGADTRYAESVKGRFTISRDNSKNTLYLQMNSLRAEDTAVYYCTIGRSASRWGQGTTVTVSSGGGGS[letters of human IgG1 Fc left out]

- Kd [3]: 26.3 nM
- koff [3]: 0.00525 s⁻¹
- kon [3]: 199000 M⁻¹ s⁻¹
B10: VHH 9-6-Fc fusion (SEQ ID NO: 202) (Fc fusion)
chain: B9 chain with V37F, G44E, L45R, W47F

- Kd [3]: 8.94 nM
- koff [3]: 0.00393 s⁻¹
- kon [3]: 439000 M⁻¹ s⁻¹
B11: VHH 9-7-Fc fusion (SEQ ID NO: 203) (Fc fusion)
chain: B9 chain with V37F, G44E, L45R, W47F, W105G
